# Several values for one entry are separate records, joined by “and”; a condition that tells them apart may be missing. Equal values may be shown once. Inconclusive means that the source gave no clear call. Such entries were picked first, then a sample of the others. For part of these data: A potency beside an inconclusive call is a rough fit, not a confirmed value. Some compounds were tested as several samples or in several runs, with calls that do not always agree. Activity calls are given as the source filed them. Unless noted, calls come from the whole dose curve; as a rule, active = well fitted curve in the direction sought with a large enough effect in the repeat runs; inconclusive = weak or mixed curves; inactive = no such curve, though single readings can be large; an effect the other way counts as inactive or inconclusive.
# How the values were obtained:
# [1] = qHTS assay to identify aromatase inhibitors - cell viability counter screen (AID 743084); settings: MCF-7 aro ERE viability, CellTiter-Fluor, 24 h; activity change, negative = cytotoxicity: at 70.3 µM (top of the series);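 note: cells stimulated with testosterone during compound exposure; nearly all actives have a fitted effect of over 55% in size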; note: potency is the fitted concentration of half-maximal effect
# [2] = qHTS assay for small molecule activators of the heat shock response signaling pathway (AID 743210; active = well fitted activation curve with a large enough effect in the signal ratio in the repeat runs, with a control signal flat, not every such curve was filed as active; inconclusive = weak or mixed curves; the % refers to the signal ratio; note: potency is the fitted concentration of half-maximal effect; for activation: % is set by controls: 0 for no effect and ±100 for the full control effect); settings: HeLa HSE-bla reporter, beta-lactamase ratio, 5 h; activation: at 62.6 µM (top of the series)
# Summary of the method: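 Heat shock element–beta-lactamase HeLa reporter cells; qHTS with compounds for 5 h at 37 C; detection by FRET substrate fluorescence after 2.5 h at RT.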
# [3] = qHTS assay to identify small molecule agonists of the farnesoid-X-receptor (FXR) signaling pathway - cell viability counter screen (AID 743218); settings: FXR-bla HEK293T viability, CellTiter-Glo luminescence, 16 h; viability change, negative = cytotoxic: at 62.6 µM (top of the series) unless noted; note: nearly all actives have a fitted effect of over 45% in size; note: potency is the fitted concentration of half-maximal effect; for viability change, negative = cytotoxic: % is set by controls: 0 for no effect and ±100 for the full control effect
# Summary of the method: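 Viability of FXR-bla HEK 293T cells is measured by ATP-based CellTiter-Glo luminescence following 16 h compound treatment at 37 C and a prior 2 h room-temperature beta-lactamase substrate step.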
# [4] = molecular target: Vitamin D3 receptor (Homo sapiens) (UniProt P11473); test: qHTS assay to identify small molecule antagonists of the vitamin D receptor (VDR) signaling pathway (AID 743223; active = well fitted inhibition curve with a large enough effect in the signal ratio in the repeat runs, not every such curve was filed as active; inconclusive = weak or mixed curves, or effect the other way; inactive = no such curve, though single readings can be large or run the other way; the % refers to the signal ratio; note: potency is the fitted concentration of half-maximal effect); settings: VDR-UAS-bla HEK293T, beta-lactamase FRET ratio, 16 h; activity change, negative = inhibition: at 61 µM (top of the series) unless noted
# Sequence of UniProt P11473 (P11473 whole entry, looked up): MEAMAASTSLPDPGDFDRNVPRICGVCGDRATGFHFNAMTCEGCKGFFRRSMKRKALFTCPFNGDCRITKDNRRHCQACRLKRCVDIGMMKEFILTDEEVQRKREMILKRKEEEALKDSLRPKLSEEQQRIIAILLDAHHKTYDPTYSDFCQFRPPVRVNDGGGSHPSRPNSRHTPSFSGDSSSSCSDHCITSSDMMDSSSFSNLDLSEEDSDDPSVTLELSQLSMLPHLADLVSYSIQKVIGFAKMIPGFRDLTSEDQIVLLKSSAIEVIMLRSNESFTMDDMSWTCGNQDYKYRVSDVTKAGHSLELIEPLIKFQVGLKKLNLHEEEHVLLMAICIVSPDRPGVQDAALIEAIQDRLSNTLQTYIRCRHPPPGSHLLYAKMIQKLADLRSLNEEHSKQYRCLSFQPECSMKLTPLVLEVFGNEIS
# Summary of the method: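 VDR-bla cells were treated with compound plus 3 nM final 1alpha,25-dihydroxyvitamin D3 for 16 h at 37C. Beta-lactamase reporter read by B/G FRET substrate fluorescence after 2 h at room temperature. qHTS format.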
# [5] = molecular target: Aryl hydrocarbon receptor (Homo sapiens) (UniProt P35869); test: qHTS assay to identify small molecule that activate the aryl hydrocarbon receptor (AhR) signaling pathway (AID 743085); note: nearly all actives have a fitted effect of over 15% in size; note: potency is the fitted concentration of half-maximal effect
# Sequence of UniProt P35869 (P35869 whole entry, looked up): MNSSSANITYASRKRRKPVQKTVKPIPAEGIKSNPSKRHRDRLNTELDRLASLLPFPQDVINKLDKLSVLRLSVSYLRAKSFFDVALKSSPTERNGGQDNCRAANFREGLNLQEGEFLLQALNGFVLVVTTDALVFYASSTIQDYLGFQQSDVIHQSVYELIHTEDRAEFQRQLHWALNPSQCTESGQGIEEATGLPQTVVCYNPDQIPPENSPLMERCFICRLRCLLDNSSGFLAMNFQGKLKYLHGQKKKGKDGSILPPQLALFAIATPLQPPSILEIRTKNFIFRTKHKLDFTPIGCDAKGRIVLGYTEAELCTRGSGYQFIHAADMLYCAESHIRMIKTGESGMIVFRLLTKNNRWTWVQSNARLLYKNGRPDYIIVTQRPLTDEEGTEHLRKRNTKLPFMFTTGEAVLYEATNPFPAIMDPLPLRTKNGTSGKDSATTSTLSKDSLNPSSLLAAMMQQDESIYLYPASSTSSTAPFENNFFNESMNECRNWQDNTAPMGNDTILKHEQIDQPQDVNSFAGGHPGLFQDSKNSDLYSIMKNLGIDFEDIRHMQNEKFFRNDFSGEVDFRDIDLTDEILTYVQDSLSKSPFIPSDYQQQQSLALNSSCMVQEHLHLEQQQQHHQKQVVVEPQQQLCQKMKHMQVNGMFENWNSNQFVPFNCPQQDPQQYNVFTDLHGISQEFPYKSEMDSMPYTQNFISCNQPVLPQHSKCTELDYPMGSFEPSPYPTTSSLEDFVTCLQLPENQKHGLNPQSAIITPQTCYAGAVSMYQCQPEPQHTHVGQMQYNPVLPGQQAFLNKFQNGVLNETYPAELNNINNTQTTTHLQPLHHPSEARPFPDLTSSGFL
# Summary of the method: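 HepG2 cells stably carrying a 20-DRE firefly luciferase reporter (HG2L7.5c1) treated with compound for 24 hr at 37C. Luciferase read by ONE-Glo luminescence, with CellTiter-Fluor viability read first.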
# [6] = molecular target: Peroxisome proliferator-activated receptor gamma (Homo sapiens) (UniProt P37231); test: qHTS assay to identify small molecule antagonists of the peroxisome proliferator-activated receptor gamma (PPARg) signaling pathway (AID 743191; calls by dose curve; note: nearly all actives have a fitted effect of over 30% in size; note: potency is the fitted concentration of half-maximal effect); settings: HEK293H PPARg-UAS-bla, beta-lactamase ratio, antagonist, 17 h; ratio activity, negative = inhibition: at 62.6 µM (top of the series) unless noted
# Sequence of UniProt P37231 (P37231 whole entry, looked up): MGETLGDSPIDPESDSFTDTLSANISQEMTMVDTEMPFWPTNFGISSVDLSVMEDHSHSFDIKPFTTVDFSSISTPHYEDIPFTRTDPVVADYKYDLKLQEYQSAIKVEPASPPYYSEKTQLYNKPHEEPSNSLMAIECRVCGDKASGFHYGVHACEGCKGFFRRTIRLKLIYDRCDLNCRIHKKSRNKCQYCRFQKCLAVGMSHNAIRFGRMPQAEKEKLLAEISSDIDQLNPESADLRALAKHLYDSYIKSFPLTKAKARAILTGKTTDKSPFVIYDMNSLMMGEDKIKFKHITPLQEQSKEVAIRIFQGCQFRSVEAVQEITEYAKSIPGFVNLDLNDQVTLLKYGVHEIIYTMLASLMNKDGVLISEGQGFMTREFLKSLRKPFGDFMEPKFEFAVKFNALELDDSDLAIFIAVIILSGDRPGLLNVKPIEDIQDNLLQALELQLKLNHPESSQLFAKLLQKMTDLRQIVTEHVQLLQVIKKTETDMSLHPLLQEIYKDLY
# Summary of the method: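 GeneBLAzer PPARg UAS-bla HEK293H cells carrying a UAS-driven beta-lactamase reporter were plated at 3000 cells/well, preincubated 5 h at 37C, then given compound for 17 h at 37C; LiveBLAzer B/G FRET substrate was read after 1 h at room temperature.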
# [7] = qHTS assay to identify small molecule that activate the aryl hydrocarbon receptor (AhR) signaling pathway - cell viability counter screen (AID 743086); note: nearly all actives have a fitted effect of over 45% in size; note: potency is the fitted concentration of half-maximal effect
# Summary of the method: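 HepG2-AhR-luc (HG2L7.5c1) cells, 4000/well, were preincubated 5 h at 37C, exposed to compound in qHTS format for 24 hr at 37C, then given CellTiter-Fluor for 30 min; viability was read as fluorescence in the reporter wells.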
# [8] = qHTS assay to identify small molecule antagonists of the peroxisome proliferator-activated receptor delta (PPARd) signaling pathway - cell viability counter screen (AID 743213); settings: PPARd-bla HEK293H viability, CellTiter-Glo luminescence, 17 h; viability change, negative = cytotoxic: at 62 µM (top of the series) unless noted; note: nearly all actives have a fitted effect of over 50% in size; note: potency is the fitted concentration of half-maximal effect
# Summary of the method: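 Viability counter-screen, qHTS format: PPARd-bla HEK293H, L165041 300 nM final, 17 h compound exposure at 37 C, CellTiter-Glo luminescence after 30 min RT.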
# [9] = qHTS assay for small molecule agonists of the antioxidant response element (ARE) signaling pathway (AID 743202; active = well fitted activation curve with a large enough effect in the signal ratio in the repeat runs, not every such curve was filed as active; inconclusive = weak or mixed curves, or effect the other way; inactive = no such curve, though single readings can be large or run the other way; the % refers to the signal ratio; note: potency is the fitted concentration of half-maximal effect); settings: HepG2 ARE-bla reporter, beta-lactamase FRET, 16 h; activation: at 73.3 µM (top of the series) unless noted
# Summary of the method: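 Following a 16 h, 37 C exposure of reporter HepG2 cells (ARE-driven beta-lactamase, 2,000 cells/well) to compounds, FRET substrate was applied for 2 h at room temperature and fluorescence intensity recorded.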
# [10] = qHTS assay to identify small molecule agonists of the peroxisome proliferator-activated receptor delta (PPARd) signaling pathway - cell viability counter screen (AID 743211); settings: PPARd-bla HEK293H viability, CellTiter-Glo luminescence, 17 h; activity change, negative = cytotoxicity: at 62.6 µM (top of the series); note: potency is the fitted concentration of half-maximal effect; nearly all actives have a fitted effect of over 55% in size
# Summary of the method: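 PPARd-bla HEK293H cells (3000/well) were pre-incubated 5 h at 37 C, then exposed to compound for 17 h at 37 C. After 2 h with LiveBLAzer substrate, CellTiter-Glo was added to the same wells; luminescence read after 30 min at room temperature.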
# [11] = molecular target: Bile acid receptor (Homo sapiens) (UniProt Q96RI1); test: qHTS assay to identify small molecule antagonists of the farnesoid-X-receptor (FXR) signaling pathway (AID 743217; active = well fitted inhibition curve with a large enough effect in the signal ratio in the repeat runs, not every such curve was filed as active; inconclusive = weak or mixed curves, or effect the other way; inactive = no such curve, though single readings can be large or run the other way; the % refers to the signal ratio; note: % is set by controls: 0 for no effect and ±100 for the full control effect); settings: HEK293T FXR-UAS-bla, beta-lactamase ratio, CDCA-stimulated, 16 h; activity change, negative = inhibition: at 62.6 µM (top of the series) unless noted
# Sequence of UniProt Q96RI1 (Q96RI1 whole entry, looked up): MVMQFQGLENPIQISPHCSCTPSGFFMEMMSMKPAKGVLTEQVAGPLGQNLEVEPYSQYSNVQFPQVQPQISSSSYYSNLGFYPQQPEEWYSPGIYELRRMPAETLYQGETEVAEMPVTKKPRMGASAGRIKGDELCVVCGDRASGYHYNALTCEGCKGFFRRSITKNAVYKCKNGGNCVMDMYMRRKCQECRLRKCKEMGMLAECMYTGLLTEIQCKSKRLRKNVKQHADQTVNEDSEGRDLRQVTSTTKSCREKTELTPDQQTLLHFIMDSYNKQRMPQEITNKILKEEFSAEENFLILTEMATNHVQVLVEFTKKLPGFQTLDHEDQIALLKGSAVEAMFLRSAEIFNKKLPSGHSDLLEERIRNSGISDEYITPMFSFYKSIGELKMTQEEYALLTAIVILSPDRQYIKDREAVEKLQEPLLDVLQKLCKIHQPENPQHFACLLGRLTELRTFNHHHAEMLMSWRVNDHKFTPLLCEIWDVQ
# Summary of the method: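 Screen of the Tox21 10K library in quantitative HTS format using FXR-UAS-bla HEK 293T reporter cells. Agonist chenodeoxycholic acid, 50 uM final, added with compounds; 16 h incubation at 37 °C; beta-lactamase FRET fluorescence measured.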
# [12] = molecular target: Vitamin D3 receptor (Homo sapiens) (UniProt P11473); test: qHTS assay to identify small molecule agonists of the vitamin D receptor (VDR) signaling pathway (AID 743222; calls by dose curve; note: potency is the fitted concentration of half-maximal effect); settings: HEK293T VDR-UAS-bla, beta-lactamase FRET ratio, 16 h; activation: at 63.5 µM (top of the series) unless noted
# Summary of the method: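 Fluorescence from cleaved LiveBLAzer B/G FRET substrate served as readout. VDR-bla cells had been treated 16 h at 37C with test compounds in DMSO, following a 4 h settling period, and substrate was loaded for 2 h at RT.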
# [13] = molecular target: Peroxisome proliferator-activated receptor gamma (Homo sapiens) (UniProt P37231); test: qHTS assay to identify small molecule agonists of the peroxisome proliferator-activated receptor gamma (PPARg) signaling pathway (AID 743094; active = well fitted activation curve with a large enough effect in the signal ratio in the repeat runs, not every such curve was filed as active; inconclusive = weak or mixed curves, or effect the other way; inactive = no such curve, though single readings can be large or run the other way; the % refers to the signal ratio; note: potency is the fitted concentration of half-maximal effect); settings: HEK293H PPARg-UAS-bla, beta-lactamase FRET ratio, 17 h; activation: at 57 µM (top of the series) unless noted
# Summary of the method: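 Reporter activation was scored by fluorescence of cleaved LiveBLAzer B/G substrate (1 h, room temperature) in PPARg-bla HEK293H cells previously treated 17 h at 37C with DMSO-dissolved compounds.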
# [14] = molecular target: Peroxisome proliferator-activated receptor delta (Homo sapiens) (UniProt Q03181); test: qHTS assay to identify small molecule antagonists of the peroxisome proliferator-activated receptor delta (PPARd) signaling pathway (AID 743215; active = well fitted inhibition curve with a large enough effect in the signal ratio in the repeat runs, not every such curve was filed as active; inconclusive = weak or mixed curves, or effect the other way; inactive = no such curve, though single readings can be large or run the other way; the % refers to the signal ratio;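 note: cells stimulated with agonist L165041 at 300 nM final during compound exposure; % is set by controls: 0 for no effect and ±100 for the full control effect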); settings: HEK293H PPARd-UAS-bla, beta-lactamase FRET ratio, antagonist, 17 h; ratio activity, negative = inhibition: at 62 µM (top of the series) unless noted
# Sequence of UniProt Q03181 (Q03181 whole entry, looked up): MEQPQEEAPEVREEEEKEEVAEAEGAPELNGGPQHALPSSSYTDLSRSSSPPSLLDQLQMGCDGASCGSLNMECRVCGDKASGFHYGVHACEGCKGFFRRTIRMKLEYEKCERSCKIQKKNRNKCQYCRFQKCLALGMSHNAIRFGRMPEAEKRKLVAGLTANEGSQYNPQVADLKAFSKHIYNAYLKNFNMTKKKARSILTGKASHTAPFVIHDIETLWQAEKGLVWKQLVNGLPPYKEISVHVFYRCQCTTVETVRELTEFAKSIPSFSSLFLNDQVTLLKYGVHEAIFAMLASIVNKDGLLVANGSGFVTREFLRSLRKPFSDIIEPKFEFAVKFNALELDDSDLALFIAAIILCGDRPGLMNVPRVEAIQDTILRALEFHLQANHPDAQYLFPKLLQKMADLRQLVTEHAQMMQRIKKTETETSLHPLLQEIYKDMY
# Summary of the method: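 Plated HEK293H PPARd-bla cells rested 5 h at 37 C and 5% CO2. Compound, then agonist L165041 at 300 nM final, was added; 17 h at 37 C followed. Substrate loading, 2 h room temperature, fluorescence measured.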
# [15] = molecular target: Bile acid receptor (Homo sapiens) (UniProt Q96RI1); test: qHTS assay to identify small molecule agonists of the farnesoid-X-receptor (FXR) signaling pathway (AID 743220; active = well fitted activation curve with a large enough effect in the signal ratio in the repeat runs, not every such curve was filed as active; inconclusive = weak or mixed curves, or effect the other way; the % refers to the signal ratio; note: potency is the fitted concentration of half-maximal effect); settings: HEK293T FXR-UAS-bla, beta-lactamase FRET ratio, 16 h; activation: at 62.6 µM (top of the series) unless noted
# Summary of the method: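 FXR-UAS-bla HEK 293T cells carrying a UAS-driven beta-lactamase reporter were plated for 5 h at 37C/5% CO2, then exposed to DMSO-dissolved Tox21 10K compounds for 16 h at 37C. A LiveBLAzer B/G FRET substrate was loaded for 2 h at room temperature before fluorescence reading.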
# [16] = qHTS assay to identify small molecule antagonists of the farnesoid-X-receptor (FXR) signaling pathway - cell viability counter screen (AID 743221; active = well fitted cell-killing curve with a large enough effect in the repeat runs, not every such curve was filed as active; inconclusive = weak or mixed curves, or effect the other way; inactive = no such curve, though single readings can be large or run the other way; note: % is set by controls: 0 for no effect and ±100 for the full control effect; nearly all actives have a fitted effect of over 50% in size); settings: FXR-bla HEK293T viability, CellTiter-Glo luminescence, 16 h; activity change, negative = cytotoxicity: at 62.6 µM (top of the series)
# Summary of the method: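 GeneBLAzer FXR-UAS-bla HEK 293T cells, compound plus chenodeoxycholic acid (50 uM final), 16 h at 37 C. CellTiter-Glo added to the same wells after the beta-lactamase read; luminescence read after 30 min at room temperature as viability.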
# [17] = molecular target: Peroxisome proliferator-activated receptor delta (Homo sapiens) (UniProt Q03181); test: qHTS assay to identify small molecule agonists of the peroxisome proliferator-activated receptor delta (PPARd) signaling pathway (AID 743212; calls by dose curve; note: potency is the fitted concentration of half-maximal effect); settings: HEK293H PPARd-UAS-bla, beta-lactamase FRET ratio, 17 h; activation: at 62.6 µM (top of the series) unless noted
# Summary of the method: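 Beta-lactamase reporter read by fluorescence (LiveBLAzer B/G FRET, 2 h, room temperature). Test agents, in DMSO, incubated at 37 C with PPARd-bla HEK293H cells.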
# [18] = qHTS assay to identify small molecule antagonists of the peroxisome proliferator-activated receptor gamma (PPARg) signaling pathway - cell viability counter screen (AID 743194); settings: PPARg-bla HEK293H viability, CellTiter-Glo luminescence, 17 h, co-treated with 50 nM rosiglitazone; activity change, negative = cytotoxicity: at 62.6 µM (top of the series); note: % is set by controls: 0 for no effect and ±100 for the full control effect; nearly all actives have a fitted effect of over 55% in size
# Summary of the method: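 PPARg-UAS-bla HEK293H cells were plated, rested 5 h at 37 C, then treated with compounds plus rosiglitazone (50 nM final) for 17 h at 37 C; viability was then read by CellTiter-Glo luminescence after 30 min at room temperature.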
# Tags give direction and shape of the fitted curve or compound fluorescence and quenching.
smiles,measurement,setting,value
CN1CCOCC1,Potency,[1],"inconclusive: 53.3 µM [rising, partial curve, poor fit]"
same,activation,[2],inconclusive: 4.97%
same,Potency,[3],inactive
same,Potency,[4],inconclusive: 43.6 µM [activator]
CC(C)(C)CC(C)(C)N,Potency,[5],inactive
same,Potency,[6],inactive
CCOC(=O)CC(C(C)=O)C(C)=O,Potency,[5],inactive
same,Potency,[7],inactive
same,Potency,[8],inactive
CN(C)C(=N)N=C(N)N,Potency,[1],inactive
same,activation,[9],inconclusive: -5.81%
same,Potency,[3],"inconclusive: 0.668 µM [rising, partial curve, poor fit]"
CCCC1O[C@@H]2C[C@H]3[C@@H]4CCC5=CC(=O)C=C[C@]5(C)[C@H]4[C@@H](O)C[C@]3(C)[C@]2(C(=O)CO)O1 (some centres not stated),Potency,[1],active: 61.2 µM
same,Potency,[9],active: 30.7 µM and active: 54.5 µM
same,Potency,[10],"inconclusive: 61.7 µM [cytotoxic, single point]"
same,Potency,[8],"inconclusive: 61.7 µM [cytotoxic, partial curve, poor fit]"
same,"activity change, negative = inhibition",[11],inconclusive: 9.57%
same,Potency,[3],"inconclusive: 6.17 µM [cytotoxic, partial curve, poor fit]"
same,Potency,[12],"inconclusive: 19.5 µM [rising, partial curve]"
same,Potency,[4],"inconclusive: 1.95 µM [fluorescent, full curve]"
CCCCCCOC(=O)c1ccccc1,Potency,[5],inactive
same,Potency,[13],inactive
same,activation,[9],inconclusive: 8.97%
same,"ratio activity, negative = inhibition",[14],inconclusive: -1.25%
same,Potency,[3],active: 30.9 µM
same,Potency,[15],"inconclusive: 15.5 µM [rising, full curve, poor fit]"
same,Potency,[16],inactive
CC[C@@H]1C[C@H](N(Cc2cc(C(F)(F)F)cc(C(F)(F)F)c2)C(C)=O)c2cc(C(F)(F)F)ccc2N1C(=O)OC(C)C,Potency,[1],"inconclusive: 3.06 µM [rising, full curve, poor fit]"
same,activation,[17],inconclusive: 1.45%
same,Potency,[8],"inconclusive: 8.71 µM [cytotoxic, partial curve]"
same,Potency,[16],inactive
CC(C)CC(C)(O)C#CC(C)(O)CC(C)C (configuration not stated),Potency,[1],"inconclusive: 75.4 µM [cytotoxic, partial curve, poor fit]"
same,Potency,[12],inactive
same,Potency,[4],inactive
O=C(O)c1cc(N=Nc2ccc([N+](=O)[O-])cc2)ccc1O,Potency,[5],active: 3.37 µM
same,Potency,[7],active: 53.5 µM
same,activation,[13],inconclusive: -15.6%
same,Potency,[6],"inconclusive: 24.1 µM [rising, full curve]"
same,Potency,[9],active: 60 µM
same,Potency,[17],"inconclusive: 10.8 µM [rising, full curve, poor fit]"
same,Potency,[3],active: 30.3 µM
same,Potency,[12],"inconclusive: 42.9 µM [rising, partial curve]"
same,"activity change, negative = inhibition",[4],inconclusive: 4.98%
C/C(=C\C(C)CC(C)CC(C)C)C1CC(=O)OC1=O (configuration not stated),Potency,[1],"inconclusive: 21.7 µM [cytotoxic, single point]"
same,activation,[9],inconclusive: 45.1%
same,Potency,[17],"inconclusive: 49 µM [rising, partial curve, poor fit]"
same,Potency,[12],inactive
same,"activity change, negative = inhibition",[4],inconclusive: 46.1%
CCCCN(CCCC)C(=O)N(CCCC)CCCC,Potency,[5],inactive
same,Potency,[7],inactive
same,activation,[9],inconclusive: 18.4%
same,Potency,[8],inactive
same,Potency,[14],inactive
same,Potency,[11],inactive
same,Potency,[15],"inconclusive: 3.47 µM [rising, partial curve, poor fit]"
same,"activity change, negative = inhibition",[4],inconclusive: 25.3%
CC(C(=O)O)c1ccc(/C=C2\CCCCC2=O)cc1 (configuration not stated),Potency,[5],"inconclusive: 8.41 µM [activator, full curve, poor fit]"
same,Potency,[13],"inconclusive: 26.8 µM [activator, single point]"
same,Potency,[6],inactive
same,Potency,[18],inactive
same,Potency,[9],active: 29.8 µM
same,Potency,[14],inactive
same,"activity change, negative = inhibition",[4],inconclusive: 9.82%
O=C1OC2(c3ccc(O)cc3Oc3cc(O)ccc32)c2ccc(N=C=S)cc21,Potency,[5],inactive
same,Potency,[13],inconclusive: 49.9 µM [partial curve]
same,Potency,[6],"inconclusive: 55.9 µM [fluorescent, partial curve]"
same,Potency,[9],"inconclusive: 55.5 µM [rising, partial curve]"
same,Potency,[2],inconclusive: 31.5 µM
same,Potency,[17],"inconclusive: 49.9 µM [rising, single point]"
same,"activity change, negative = inhibition",[11],inconclusive: -34.3% [at 81.1 µM]
same,Potency,[12],inconclusive: 55.9 µM
same,Potency,[4],"inconclusive: 44.4 µM [rising, partial curve, poor fit]"

# Source: PubChem BioAssay (Tox21)
